These results are taken from the RNAGym collection of RNA variant scans (doi:10.7554/elife.90254).

Read counts are not given, so values of variants with three or more changes are uncertain.

B1: OR4K15 (parent)
chain: GUUAACGGUCAUAGGCCAUGGAAACUAGGAGCACCAUUUCGCUGCCAGUGAAGAAAUGAACAAAGAAAAUCUGGGCCAGGCAGGCAUCAAAAGAAAUAGUCUUGCGCUCAACCAGAAAGUCUGUAAUCAUUUUAAGGGUA

In the data set the parent is B1. Nature of the data set: self-cleavage, relative activity (ratio to wild type); higher = more cleavage; in vitro, sequencing; the parent is a self-cleaving ribozyme.
In the case of GUUAACGGCCAUAGGCCAAGGAAACUAGGAGCACCAUUUCGCUGCCAGUGAGGAAAUGAACAAAGAAAAUCUGGGCCAGGCAGGCAUCAGAAGAAAUAGUCCUGCGCUCAACCAGAAAGUCUGUAAUCAUUUCAAGGGUA [U9C U19A A52G A90G U102C U133C], the self-cleavage stood at 1.97.
In the case of GUUAACGGCCAUAGGCCACGGAAACUAGGAGCACCAUUUCGCUGCCAGUGAAGAAAUGAACAUAGAAAAUCUGGGCCAGGCAGGCAUCAAAAGAAAUAGUCUUGCGCUCAACCAGAAAGUCUGUAAUCAUUUUAAGGGUA [U9C U19C A63U] it was 1.74.
On to GUUAACGGCCAUAGGCCAUGGAAACCAGGAGCACCAUUUCGCUGCCAGUGAAGAAAUGAACAAAGAAAAUCUGGGCCAGGCAGGCAUCAAAAGAAAUAGUCUUGCGCUCAACCAGAAAGUCUGUAAACAUUUUAAGGGUA [U9C U26C U127A], for which the self-cleavage stood at 2.08.
With GUUAACGGCCAUAGUCCAUGGAAACUAGGAGCACCAUCUCGCUGCCAGUGAAGAAAUGAACAAAGAAAAUCUGGGCCAGGCAGGCAUCCAAAGAAAUAGUCUUGCGCUCAACCAGAAAGUCUGUAAUCAUUUUAAGGGUA [U9C G15U U38C A89C], the self-cleavage turned out to be 1.3.
As for GUUAACGGCCACAGGCCACGGAAACUAGGAGCACCAUUUCGCUGCCAGUGAAGAAAUGAACAAAGAAAAUCUGGGCCAGGCAGGCAUCAAAAGGGAUAGUCCUGCGCUCAACCAGAAAGUCAGUAAUCAUUUUAAGGGUA [U9C U12C U19C A94G A95G U102C U122A], the self-cleavage came to 1.74.
In the case of GUUAACGGCCAUAUGCCAUGGAAACUAGGAGCACCAUUUCGCUGCCAGUGGAGAAAUGAACAAAGAAAAUCUGGGCCAGGCAGGCUUCAAAGGAAGUAGUCUUGCGCUCAACCAGAAGGUCUGUAAUCGUUUUAAGGGUA [U9C G14U A51G A86U A92G A96G A118G A129G], the self-cleavage turned out to be 0.29.
Take GUUAACGGCCAUAGGCCAUGGAAACUAGGAGCACCACUUCGCUGCCAGUGAAGAAAUGAACAAAGAAAAUCUGGGCCAGGCGGGCAUCAACAGAAAUAGUCUUGCGCUCAACCAGAAAGUCUGUAAUCAUAUUAAGGGUA [U9C U37C A82G A91C U131A]: the self-cleavage was found to be 0.58.
In the case of GUUAACGGCCAUAGGCCAUGGAAACUAGGAGCACCAUUUCGCUGCCACUGAGGAAAUGAACAAAGAAAAUCUGGGCCAGGCAGGCAUCAAAAGAAAUAGUCUUGCGCUCAACCAGAAAGUCUGUAAUCAUUUUAAGGGUA [U9C G48C A52G], the self-cleavage came to 0.94.
As to GUUAACGGCCAUAGGCCAUGGAAACUAGGAGCACCAUUUAGCUGCCAGUGAAGAAAUGAACAAAGAAAAUCUGGGCCAGGCAGGCAUCAAGAGAAGUAGUCUUGCGCUCAACCAGAAAGUCUGUAAUCAUUUUAAGGGUA [U9C C40A A91G A96G], the self-cleavage turned out to be 1.62.
Then GUUAACGGCCACAGGCCAUGGAAACUAGGAGCACCAUUUCGCUGCCAGUGAAGAAGUGAACAAAGAAAAUCUGGGCCAGGCAGGCGUCAAAAGAAAUAGUCUUGCGCUCAACCAGAAAGUCUGUAAUCAUUUUAAGGGUG [U9C U12C A56G A86G A140G], with 0.69; and GUUAACGGCCAUAGGCCAUGGAAACUAGUAGCACCAUUUCGCCGCCAGUGAAGAAAUGAACAAAGAAAAUCUGGGCCAGGCAGGCAUCAAAAGAAAUGGUCUUGCGCUCAACCAGAAAGUCUGUAAUCAUUUUAAGGGUA [U9C G29U U43C A98G], with 0.36; and GUUAACGGCCAUAGGCCAUAGAAACUAGGAGCACCAUUUCGCUGCCAGUGAAGAAAUGAGCAAAGAAAAUCUGGGCCAGGCAGGCAUCAAAAGAAAUAGUCUUGCGCUCAACCAGAAAGUCUGUAAUCAUUUUAAGGGUA [U9C G20A A60G], with 1.33.
On to GUUAACGGCCAUAGGCCAUGGAAACUAGGAGCACCAUUUCGCUGCCAGUGAAGAAAUGAACAAAGAAAAUCUGGGCCAAGCAGGCAUCAAAAGAAAUAGUCUUGCGCUCAACCAGAAUGUCUGUAAUCAUUUUAAGGGUA [U9C G79A A118U], for which the self-cleavage is 0.08.
As to GUUAACGGCCAUAGGCCAAGGAAACUAGGAGCACCAUUUCGCUGCCAGUGAAGAAAUGAACAAAGAAAAUCUGGGCCAGGCAGGCAUCAAAAGAACUAGUCUUGCGCUCAACCAGAAAGUCUGUAAUCAUUCUAAGGGUA [U9C U19A A96C U132C], the self-cleavage was found to be 1.33.
Then GUUAACGGCCAUAGGCCACGGAAACUGGGAGCACCAUUUCGCUGCUAGUGAAGAAAUGAACAAAGAAAAUCUGGGCCAGGCAGGCAUCAAAAGAAAUAGUCUUGCGCUCAACCAAAAAGUCUGUAAUCACUUUAAGGGUA [U9C U19C A27G C46U G115A U130C], with 0.02.
Take GUUAACGGCCAAGGGCCAUGGAAACUAGGAGCACCAUUUCGCUGCCAGUGAAGAAAUGAACAAAGAAAAUCUGGGCCAGGCAGGCAACAAAAGAAAUAGUCUUGCGCUCAACCAGAAAGUCUGUAAUCAUUUUAAGGGUA [U9C U12A A13G U87A]: the self-cleavage was 0.34.
Then GUUAACGGCCAUAGGCCAUGGAAACUAAGAGCACCAUUUCGCUGCCAGUGAAGAAAUUAACAAAGAAAAUCUGGGCCAGGCAGGCAUCAAAAGAAAUAGUCUUGCGCUCAACCAGAAAGUCUGUAAUCAUUUUAAGGGUA [U9C G28A G58U], with 0.35; and GUUAACGGCCAUAGGCCACGGAAACUAGGAGCACCAUUUCGCUGCCAGUGAAGAAAUGAACAAAGAAAAUCUGGGCCAGGCAGGCAUCAGAAGAAAUAGUCUUGCGCUCAUCCAGAAAGUCUGUAAUCAUUUUAAGGGUA [U9C U19C A90G A111U], with 0.07.
Then GUUAACGGCCAUAGGCCAAGGAAACUAGGAGCACCAUUUCGCUGCCAGUGAAGAAAUGAACAAAGAAAAUCUGGGCCGGGCAGGCAUCAAAAGAAAUAGUCUUGCGCUCAACCAGAAAGUCUGUAGUCAUUUUAAGGGUA [U9C U19A A78G A126G], with 0.12; and GUUAACGGCCAUAGGCCAUAGAAACUAGGAGCACCAUUUCGCUGCCAGUGAAGAAAUGAACAAAGAAAAUCUGGGCCAGGCAGGCAUCAAAAGGAAUAGUCUUGCGCUCAACCAGAAAGUCUGUAAUCAUUUUAAGGGUA [U9C G20A A94G], with 1.33.
